According to the RNAGym collection of RNA variant scans (doi:10.7554/elife.90254):
Read counts are not given, so values of variants with three or more changes are uncertain.

B1: OR4K15 (parent)
chain: GUUAACGGUCAUAGGCCAUGGAAACUAGGAGCACCAUUUCGCUGCCAGUGAAGAAAUGAACAAAGAAAAUCUGGGCCAGGCAGGCAUCAAAAGAAAUAGUCUUGCGCUCAACCAGAAAGUCUGUAAUCAUUUUAAGGGUA

Variants of: B1
Assay: self-cleavage, relative activity (ratio to wild type); higher = more cleavage; in vitro, sequencing; the parent is a self-cleaving ribozyme

Variant | self-cleavage
A5G C46U A59G U108C | 0.02
C6U A33G U100C A118C A135U | 0.67
C6U U37C U43C U100C U130C | 1.9
A5G U26A A96G U133C | 0.84
A5G A56G U108C C112A | 0.03
A5G G31C U57C A66G | 0.78
A5G A18G U39C | 0.78
A5G U9C A27G A30U A56G A68G G74A | 0.3
A5G U37C U57A | 1.03
A5G A91G U108C U127C | 0
A5G A36C A52G | 0.47
A5U C6U A68G U100C A125G | 0.28
A5G U39C A56G A62G U100C | 1.56
C6U U12A U49C | 0.36
A5U A47G G115U U122C | 0.06
A5U C88U A111G | 0.08
A5G A33G U100C | 1.63
A5G C42U A60C | 1.07
A5G A30G A78G A90U U100C A117G | 0.32
A5G A54G A55G A91G | 0.36
G7A A66G U131C | 1.01
A5G A68G A117G | 1.4
C6U A59G C101U | 0.5
A5G A36G U127A | 0.65

Variant | self-cleavage
G7A A18U U19C A30G A140G | 1.13
A5U A60U A89G | 1.67
A5G A24G A60G A126G | 0.36
A5U A51U A69G | 1.05
A5G U39A U127C | 1.16
A5G A68U A111C | 0.08
C6U A90G A94G U124C | 1.24
A5G A18U A51C A54U U122C U132C | 0.03
A5G A56G A90G | 0.69
A5G A33U A62G | 1.65
A5G U19C A54G U127C | 0.6
A5G U57C U124C | 1.2
C6A A68G A126G | 0.95
C6U A54G A64G A92G A140G | 1.07
A5G A27G A36U A62U U132C | 0.84
G7A A54G U130C | 0.69
A5G U38C U70C A82G | 0.61
C6U A24G G44A A55G | 0.79
A5G U57C A68G | 0.96
A5U G44A A68G U87C | 1.05
A5G U37C A59G | 1.52
A5G U49C A54U A63G U103C | 0.69
A5U A118U A134U | 0.44
A5G A60U U103A U130A | 0.12

Variant | self-cleavage
A5G A22U U103C | 0.78
A5G A18U A22G U37C A78G A89C A114U | 0.06
C6U A11G A52G U108C | 0.15
A5G A51G A60G U120C | 0.93
C6U A22G A64G A69G U124A | 0.54
C6G A47U A111U | 0.11
G7A A52G A94U A126G | 1.27
A5G U37C G119A | 1.53
A5G A60G A98G | 1.01
A5G G41A A114U | 0.06
A5G A27G A33G A36G A52G G84U A111G A114G | 0.01
C6A A27G U39C A67U A78G A118G | 0.09
A5G A33G A66U A134G | 1.62
A5G A22U A126G | 0.09
C6U A62U A140G | 0.78
A5G A23U A56G U87A U124A | 0.6
A5G A22G A66G A68G U131C | 0.99
A5G A24G A56G A64G U97A A110C | 0.59
A5U U9C U19C A59G | 0.89
G7A A55G C77U | 1.55
A5G U12G U43G A51G G80C | 0.05
A5G U37C A69G A111G | 0.08
A5G A30G U87C | 0.78
A5G A23G A36G A59G A94G | 0.83

Variant | self-cleavage
A5G U19C A60G A69G A129U | 0.34
A5G U38A G136A | 1.31
A5G A64G A68G A86G | 1.04
C6U A33U U49G A52G A68G | 0.58
A5U A55G G106A U108A | 0.07
A5G A69C U72A A126G A140G | 0.16
A5G G58U A64U | 0.76
A5G A24G A56G | 0.96
A5G C17U A59G | 1.2
A5G A18U U49C A129U | 0.98
A5G U38C A78G | 1.34
A5G A54C A82U U87C | 0.27
A5G C16A A94G | 1.1
A5G A18U A78G A94U | 0.25
A5G U102C U120C | 1.3
G7A A62G A92G | 1.52
A5U U37C U102C U103C | 0.35
A5G U49C A60G A89G A90G A91G A111G | 0.13
C6U U43A U72A A95G A116G U130A | 0.08
C6A A60G U127C | 0.58
A5G U9C A11U A96G U102C | 1.37
A5G G44A A86U | 1.81
A5G A30G A51G A52G U132A | 0.7
A5G U26A A116G | 1.11

Variant | self-cleavage
A5G U39C U87C A118C G123A | 0.46
A5U U100C A114G | 1.24
A5G A55G A64G | 1.67
A5G A30G G115U | 0
A5G A27G U102C | 1.09
A5U A66G U100A | 0.48
A5G A33G A86U | 1.27
A5G A24G A56G U100C | 1.4
A5G A90U U130C | 0.5
G7A A30G A60U A125G | 0.39
C6U A62U U87C | 1.48
A5G U43A A59G | 0.61
A5U A94G U103C A118G | 0.41
A5G A69G U100C | 1.48
A5G A27G A36G U57C A63G | 0.95
A5G A86U U122C | 0.88
A5U A18G U38A A86G A134G A135U | 1.09
A5G A78U U108C U122C U132C | 0
C6U A89G A116G | 0.2
C6U A111G A129G | 0.02
C6U A51G U102G U103C U132C | 0.36
A5G U37C C42A A129G | 0.61
A5G A56G A78U U132G | 0.13
A5G U57C A64G C105A | 0.01

Variant | self-cleavage
A5G G50A C112U | 0.08
C6U A30G A91G | 0.75
A5G U38C U100C A126C | 0.96
A5G U87A G123A | 1.13
C6U A18U U122C | 0.67
A5G A66G C105G | 0.13
A5G A24G U37C A62G A82C C85U A110G A111G | 0.07
A5G A23G U72C G73U A129G | 0.17
A5G U72C A90G | 0.56
C6U A62U U100C | 1.33
A5G U57C A89G A140U | 1.56
A5G U57A U120C | 0.79
A5G U43C A67G | 1.84
A5G A52G A55G G73A G75C U122A | 0.08
A5G A95U A111G U120A U124C | 0.02
C6A A24G A66U A82G | 0
A5G A22G U72A A90U | 0.32
A5U A51G A66G U131C | 1.17
A5G A51U U130C | 1
A5G A78G A117G | 0.57
A5G U39A A67G A118G | 1.06
C6U A56G A89C | 0.96
A5G U9C G14A U39C G41A A56G U87G A116G | 0.11
A5G A90G U130C U132C | 0.83

Variant | self-cleavage
A5G U9C U130C | 0.51
A5G A62G A63G | 1.33
A5G G80A A86G A110G A111G | 0.02
G7A A92G A116G | 0.34
A5G A22G A68U U108C A114G | 0.02
C6U U39A U122C | 0.8
C6U U57C A114G | 1.37
A5G A22G A63G C107A | 0.14
A5G U103C U122G U131C | 1.12
C6U A24G A82U | 0.46
A5G U12C A23G A47U G48A A62G | 0.8
A5G A23G C45U A95G A111G | 0.02
A5U A33G A91G A94U U103A A126G U131C U139C | 0.02
A5G C6U U49C A92G G93A | 0.91
A5G U49G A55G A63G U139C | 0.46
A5G U43G U131C | 1.87
A5G A24G C61A A92G U122C | 0.74
A5G A67U U108C | 0.02
A5G U19A A33C A114G | 1.02
A5G U9C C32U | 0.92
A5U A11C A68G A82U | 0.31
A5G A47G A54G A91G | 0.55
A5G A55G A126U | 1.16
